The record followed here is paper PMC11995724, “Antibiotic target discovery by integrated phenotypic and activity-based profiling of electrophilic fragments” (Cell chemical biology, 2025).

The whole screen tested about 3,200 compounds, of which about 75 (2%) showed an effect of 50% or more. This is one part of the list.

This assay has as its system T1, S. aureus MSSA476.
T1 construct: MSSA476
The arrangement: species or system S. aureus MSSA476 (TSB) or V. cholerae SAD30 (LB); 384-well bacterial growth screen at 25 uM, OD600 relative to DMSO control. The conditions noted are these: relative growth, OD600, TSB; 25 µM; inhibitor.
On to `O=C(CCl)c1ccc(NC(=O)c2ccccc2)cc1` [10-B06, N-[4-(2-chloroacetyl)phenyl]benzamide], for which the “% of control remaining” value turned out to be 0%. Take `O=C1C=CC(=O)N1c1cccc([N+](=O)[O-])c1` [10-P15, 1-(3-nitrophenyl)-2,5-dihydro-1H-pyrrole-2,5-dione]: the “% of control remaining” value is 114.063%. The result for `C=CC(=O)NC[C@@H]1C[C@H](F)CN1Cc1csc(C)n1` [2-I09, N-{[(2S,4S)-4-fluoro-1-[(2-methyl-1,3-thiazol-4-yl)methyl]pyrrolidin-2-yl]methyl}prop-2-enamide] reads 106.527%.

For the compound `C=CC(=O)N1CCC(C(=O)N2CCOC(c3cccc(F)c3)C2)CC1` (stereo not shown) [2-L14, 1-{4-[2-(3-fluorophenyl)morpholine-4-carbonyl]piperidin-1-yl}prop-2-en-1-one], the “% of control remaining” value is given as 95.7354%. Under `C=CC(=O)Nc1ccc(S(C)(=O)=O)cc1OCC` [2-C08, N-(2-ethoxy-4-methanesulfonylphenyl)prop-2-enamide] stands 116.275%; under `CC(Cl)C(=O)N(C)CCn1c(=O)oc2ccccc21` (stereo not shown) [7-H15, 2-chloro-N-methyl-N-[2-(2-oxo-2,3-dihydro-1,3-benzoxazol-3-yl)ethyl]propanamide], 92.6217%; under `C=CC(=O)N(Cc1cc(-c2ccco2)n(C)n1)C1CCCCC1` [1-J15, N-cyclohexyl-N-{[5-(furan-2-yl)-1-methyl-1H-pyrazol-3-yl]methyl}prop-2-enamide], 104.44%. Consider `C[C@@H](NC(=O)CCl)c1cnnn1C` [7-F16, 2-chloro-N-[(1R)-1-(1-methyl-1H-1,2,3-triazol-5-yl)ethyl]acetamide], for which the “% of control remaining” value is 96.7033%. With `Cn1cc(C=C(C#N)C(=O)NCc2ccccc2)cn1` [8-J10, N-benzyl-2-cyano-3-(1-methyl-1H-pyrazol-4-yl)prop-2-enamide], the “% of control remaining” value is on record as 86.971%. Under `COc1ccc(C(NC(=O)CCl)c2ccccc2)cc1` (stereo not shown) [4-J11, 2-chloro-N-[(4-methoxyphenyl)(phenyl)methyl]acetamide] stands 91.091%. Under `C=CC(=O)NCc1oc(CC)nc1C` [3-P15, N-[(2-ethyl-4-methyl-1,3-oxazol-5-yl)methyl]prop-2-enamide] stands 86.7218%; under `CC(Cl)C(=O)Nc1ccc(Cl)cc1C(F)(F)F` (stereo not shown) [4-A14, 2-chloro-N-[4-chloro-2-(trifluoromethyl)phenyl]propanamide], 134.921%. Under `C=CC(=O)NCc1ccnc(OC2CCOCC2)c1` [2-B17, N-{[2-(oxan-4-yloxy)pyridin-4-yl]methyl}prop-2-enamide] stands 135.77%; under `CC(Cl)C(=O)Nc1ccc(SC(F)F)cc1` (stereo not shown) [4-L09, 2-chloro-N-{4-[(difluoromethyl)sulfanyl]phenyl}propanamide], 91.091%. Regarding `N#CC(=Cc1ccc(F)c([N+](=O)[O-])c1)C(=O)Nc1ccc(F)cc1` [8-D04, 2-cyano-3-(4-fluoro-3-nitrophenyl)-N-(4-fluorophenyl)prop-2-enamide], the “% of control remaining” value turned out to be 123.154%. The result for `COc1ccc(OC)c(C(C)NC(=O)CCl)c1` (stereo not shown) [4-M19, 2-chloro-N-[1-(2,5-dimethoxyphenyl)ethyl]acetamide] reads 119.676%; that for `N#CC(=Cc1c(F)cccc1Cl)C(=O)Nc1ccc(C(=O)O)cc1` [9-P06, 4-[3-(2-chloro-6-fluorophenyl)-2-cyanoprop-2-enamido]benzoic acid], 109.663%. Turning to `C=CC(=O)Nc1ccc2c(=O)onc(C)c2c1` [1-N12, N-(4-methyl-1-oxo-1H-2,3-benzoxazin-6-yl)prop-2-enamide], the “% of control remaining” value came to 94.9451%. The result for `CC(Cl)C(=O)NC(=O)NC1CCS(=O)(=O)C1` (stereo not shown) [4-J13, 3-(2-chloropropanoyl)-1-(1,1-dioxo-1lambda6-thiolan-3-yl)urea] reads 106.717%. As to `Cc1c(Cl)cccc1NC(=O)CNC(=O)CCl` [5-N20, 2-chloro-N-{[(3-chloro-2-methylphenyl)carbamoyl]methyl}acetamide], the “% of control remaining” value is recorded as 96.5392%. The result for `C=CC(=O)NC(C1CCC1)C1CCOC1` (stereo not shown) [1-O22, N-[cyclobutyl(oxolan-3-yl)methyl]prop-2-enamide] reads 94.2418%; that for `CCOc1ccc(C=C(C#N)C(=O)N2CCc3sccc3C2)cc1` [8-G22, 3-(4-ethoxyphenyl)-2-{4H,5H,6H,7H-thieno[3,2-c]pyridine-5-carbonyl}prop-2-enenitrile], 89.9585%. The result for `C=CC(=O)N1CCC(C(=O)NCc2cn3ccc(C)nc3n2)CC1` [3-D12, N-({7-methylimidazo[1,2-a]pyrimidin-2-yl}methyl)-1-(prop-2-enoyl)piperidine-4-carboxamide] reads 107.27%; that for `O=C(CCl)Nc1ccc(Oc2cccc(Cl)c2)cc1` [6-C18, 2-chloro-N-[4-(3-chlorophenoxy)phenyl]acetamide], 115.756%; that for `O=C(CCl)Nc1ccc2ccccc2c1` [4-B12, 2-chloro-N-(naphthalen-2-yl)acetamide], 131.872%. The result for `O=C(CCl)c1cc2c3c(c1)CC(=O)N3CCC2` [10-G16, 6-(2-chloroacetyl)-1-azatricyclo[6.3.1.0,4,12]dodeca-4(12),5,7-trien-2-one] reads 130.938%; that for `N#CC(=Cc1ccc(Cl)c(Cl)c1)C(=O)NCc1ccccc1` [8-B07, N-benzyl-2-cyano-3-(3,4-dichlorophenyl)prop-2-enamide], 110.539%. For `C=CC(=O)Nc1cc(NC(=O)c2ccc([N+](=O)[O-])o2)ccc1F` [3-J04, N-[4-fluoro-3-(prop-2-enamido)phenyl]-5-nitrofuran-2-carboxamide], the “% of control remaining” value is given as -4.528%.

Turning to `CCc1ccccc1NC(=O)CN(C)C(=O)C(C)Cl` (stereo not shown) [4-P05, 2-chloro-N-{[(2-ethylphenyl)carbamoyl]methyl}-N-methylpropanamide], the “% of control remaining” value came out at 90.7099%. With `N#CC(=Cc1cccc2nccn12)C(=O)Nc1ccccc1` [9-M05, 2-cyano-3-{imidazo[1,2-a]pyridin-5-yl}-N-phenylprop-2-enamide], the “% of control remaining” value is 108.464%. The result for `C=CC(=O)Nc1ccc2c(c1)CCO2` [1-O11, N-(2,3-dihydro-1-benzofuran-5-yl)prop-2-enamide] reads 111.824%; that for `Cc1cc(C(=O)CCl)c(C)n1-c1ccc(OC(F)F)c(Cl)c1` [10-K04, 2-chloro-1-{1-[3-chloro-4-(difluoromethoxy)phenyl]-2,5-dimethyl-1H-pyrrol-3-yl}ethan-1-one], 0%.

Consider `C=CC(=O)Nc1ccc(OC)c(COC)c1` [3-B06, N-[4-methoxy-3-(methoxymethyl)phenyl]prop-2-enamide], for which the “% of control remaining” value stood at 91.2495%. The result for `c1ccc(CSSCc2ccccc2)cc1` [10-O21, [(benzyldisulfanyl)methyl]benzene] reads 113.125%.

As for `CNC(=O)C(C#N)=Cc1cccc(-c2ccncc2)c1` [9-L14, 2-cyano-N-methyl-3-[3-(pyridin-4-yl)phenyl]prop-2-enamide], the “% of control remaining” value is recorded as 106.367%.

For the compound `COc1ccccc1NC(=O)c1ccc(NC(=O)C(C)Cl)cc1` (stereo not shown) [5-C17, 4-(2-chloropropanamido)-N-(2-methoxyphenyl)benzamide], the “% of control remaining” value is recorded as 104.918%.

Take `C=CC(=O)N1CCC(F)CC1` [1-D14, 1-(4-fluoropiperidin-1-yl)prop-2-en-1-one]: the “% of control remaining” value is reported as 103.385%. Consider `Cc1ccc(C=C(C#N)C(=O)Nc2ccc(C(=O)O)cc2)o1` [8-C14, 4-[2-cyano-3-(5-methylfuran-2-yl)prop-2-enamido]benzoic acid], for which the “% of control remaining” value amounted to 106.224%. Under `Cc1ccc(S(=O)(=O)N2CCCCC2)cc1NC(=O)CCl` [4-L06, 2-chloro-N-[2-methyl-5-(piperidine-1-sulfonyl)phenyl]acetamide] stands 99.8571%; under `CC(Cl)C(=O)NCC1(C2CC2)CCC1` (stereo not shown) [7-A06, 2-chloro-N-[(1-cyclopropylcyclobutyl)methyl]propanamide], 94.8195%; under `Cn1cc(S(=O)(=O)N2CCOCC2)cc1C(=O)NC(=O)CCl` [4-P20, N-(2-chloroacetyl)-1-methyl-4-(morpholine-4-sulfonyl)-1H-pyrrole-2-carboxamide], 92.2344%. For the compound `CC(Cl)C(=O)N1c2ccccc2NC(=O)C1(C)C` (stereo not shown) [4-C08, 4-(2-chloropropanoyl)-3,3-dimethyl-1,2,3,4-tetrahydroquinoxalin-2-one], the “% of control remaining” value stood at 117.77%. For `O=C(CCl)Nc1oncc1-c1ccccc1` [6-I20, 2-chloro-N-(4-phenyl-1,2-oxazol-5-yl)acetamide], the “% of control remaining” value was found to be 96.2927%. Turning to `CC(Cl)C(=O)NC(C)c1ccc2c(c1)CCCC2` (stereo not shown) [6-A07, 2-chloro-N-[1-(5,6,7,8-tetrahydronaphthalen-2-yl)ethyl]propanamide], the “% of control remaining” value is 81.6098%.

`N#CC(=Cc1cccc(Cl)c1)C(=O)Nc1ccccc1C(F)(F)F` [8-J13, 3-(3-chlorophenyl)-2-cyano-N-[2-(trifluoromethyl)phenyl]prop-2-enamide]: the “% of control remaining” value was determined as 131.12%. Under `CC(Cl)C(=O)N1CC(OCc2cccc3ccccc23)C1` (stereo not shown) [7-I03, 2-chloro-1-{3-[(naphthalen-1-yl)methoxy]azetidin-1-yl}propan-1-one] stands 82.2606%.
